Assay results taken from patent US12036204B2, “Pharmaceutical composition for treating tumor” (Eisai R&D Management Co., Ltd., priority 2019, dated 2024).
Where a name gives a salt, the structure may show the parent alone.

How the values were obtained:
[1] = test system: murine colorectal cancer CT-26 cell line with P glycoprotein knock-out (Pgp-KO CT-26); experiment: Antitumor effect in Pgp-KO CT-26 tumor transplantation model (Example 3); format: in vivo, mouse; details: in comparison with the control group; 0.3 mg/kg
Excerpt: From mouse colorectal cancer CT-26 cells (purchased from ATCC), a P glycoprotein knockout cell line (Pgp-KO CT-26) was produced in accordance with the same materials and procedures used in the production of Pgp-KO 4T1 cells.

[2] = test system: murine breast cancer 4T1 cell line with P glycoprotein knock-out (Pgp-KO 4T1); experiment: Antitumor effect in Pgp-KO 4T1 tumor transplantation model, low dose 0.1 mg/kg (Example 1); details: anti-mouse PD-1 antibody 200 μg/mouse

Compound: C=C1C[C@@H]2CC[C@@]34C[C@H]5O[C@H]6[C@@H](O3)[C@H]3O[C@H](CC[C@@H]3O[C@H]6[C@H]5O4)CC(=O)C[C@@H]3[C@@H](OC)[C@@H](C[C@H](O)CN)O[C@H]3C[C@H]3O[C@@H](CC[C@@H]1O2)C[C@@H](C)C3=C [Eribulin mesylate]
- Antitumor effect (tumor volume) [1]: no antitumor effect
- Effect of extending the time of suppressing tumor growth (Tx5) ([2]; vs control): no extension effect
- Antitumor effect (tumor volume, FIG. 1) ([2]; in comparison with the control group): no antitumor effect
